Experimental data reported in article PMC12040169 (PLOS Biology, 2025).
The list shows a part of the results.

These compounds were tested on T1, C. trachomatis L2/434/Bu expressing GFP (CTL2-GFP). Settings: total inclusion area; 28.5 h, 10 µM; inhibitor.
T1 construct: L2/434/Bu GFP intracellular growth in HeLa cells
Design: species or system HeLa; C. trachomatis total inclusion area by high-content imaging, normalised to DMSO
Method in brief: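 Post-fluorescence-read fixation, DNA staining with Hoechst and high-content imaging; GFP inclusion area and number per well, and nuclei counts, used as proxies for bacterial growth and host viability.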

Row | SMILES | % of control remaining
1 | COc1c(C(=O)O)cc(C)c2c1CCC2C (stereo not drawn) [CBK013617] | 95.9315
2 | CC(C)C(=O)N1C2CCC1Cn1c(nc3ccccc3c1=O)C2 (stereo not drawn) [CBK284450] | 95.6954
3 | Cc1nc(NS(=O)(=O)c2cc(F)c(Br)cc2F)sc1C(=O)O [CBK045556] | 98.1184
4 | CC(C)(C)C(=O)CN1CCC(C(=O)NC(c2ccccc2)c2ccco2)CC1 (stereo not drawn) [CBK148298] | 118.873
5 | Cc1ccccc1NC(=O)CC(C(=O)O)N(C)C (stereo not drawn) [CBK266924] | 97.0204
6 | Clc1ccc(-n2ncc(-c3cccnc3)n2)cc1Cl [CBK112814] | 91.9765
7 | O=C(O)CCC(=O)NCc1ccc(-c2nccnc2NS(=O)(=O)c2ccc(O)cc2)cc1 [CBK073843] | 81.8066
8 | COC(=O)c1ccccc1NC(=O)CSc1nc(C)cc(C)n1 [CBK263818] | 98.0114
9 | O=C(C1CCCC1)N1CCC[C@@H]1Cn1c(=O)oc2ccccc21 [CBK284539] | 118.436
10 | COc1nccnc1OC1CCN(Cc2ccccc2)CC1 [CBK084238] | 100.492
11 | COc1ccc(OC)c(C2CC(c3ccc(NS(C)(=O)=O)cc3)=NN2C(=O)CCC(=O)O)c1 (stereo not drawn) [CBK297781] | 90.1557
12 | CN(C)S(=O)(=O)c1ccc(C(=O)Nc2ccc(-c3ccccc3)cc2)cc1 [CBK264978] | 104.673
13 | O=C(CSc1nnc(CN2CCOCC2)n1-c1ccc(Cl)cc1)N1CCc2ccccc21 [CBK269008] | 69.3638
14 | CN(C)S(=O)(=O)N(CC(=O)NCc1ccncc1)c1ccccc1 [CBK268322] | 117.124
15 | Cn1nnc2c(N3CCN(C(=O)c4ccccc4)CC3)ncnc21 [CBK287830] | 125.337
16 | CCOC(=O)C(C)n1nc(C)n2c(cc3sccc32)c1=O (stereo not drawn) [CBK283333] | 90.6282
17 | CCn1cc(CC(=O)Nc2cccc(-n3cnnc3)c2)c2ccccc21 [CBK282669] | 139.536
18 | CN(C)CCNC(=O)c1cccc(-c2cncc(N3CCN(c4ccncc4)CC3)n2)c1 [CBK065391] | 105.626
19 | CN(C)CC1CCCCN1C(=O)C1C2CCCCC21 (stereo not drawn) [CBK282087] | 118.946
20 | CCN1CC2(CCN(CC3CC3)CC2)c2ccccc21 [CBK136987] | 65.4636
21 | CCc1nnc(NS(=O)(=O)c2cc(C(=O)O)c(Cl)cc2F)s1 [CBK062195] | 110.353

Row | SMILES | % of control remaining
22 | O=C(NCC1(c2ccccc2F)CCOCC1)[C@@H]1C[C@@H]2C=C[C@H]1C2 [CBK281552] | 102.371
23 | CC(C)n1ccnc1CN1CCn2nc(CNc3cnccn3)cc2C1 [CBK306902] | 62.4012
24 | COCCNC(=O)c1cc(-c2ccccc2C)cnc1NS(C)(=O)=O [CBK106422] | 101.542
25 | Cc1cnc2c(C(=O)Nc3cccc(CCc4ccncc4)c3)cnn2c1 [CBK285558] | 101.464
26 | CC(NC(=O)Cn1c(=O)oc2ccc(Cl)cc21)C1CC2CCC1C2 (stereo not drawn) [CBK281636] | 78.9276
27 | Cn1nccc1C(=O)C1CCN(C(=O)c2cc3c(s2)CCC3)CC1 [CBK284427] | 85.4444
28 | Cc1ccc(NC(=O)c2ccc(-c3ccccc3)cc2)c(OC(=O)c2ccc(-c3ccccc3)cc2)c1 [CBK261347] | 93.2873
29 | OCCOc1ccccc1-c1cc[nH]n1 [CBK001973] | 59.8007
30 | CN1CCC(C(=O)NC2Cc3ccccc3C2)CC1 [CBK200263] | 116.425
31 | O/N=C/c1c[nH]c2ccccc12 [CBK168630] | 93.5347
32 | CC(=O)CCC(=O)N1CCN(C(=O)c2ccc(-c3ccc(S(C)(=O)=O)cc3)cn2)CC1 [CBK160484] | 103.039
33 | CN1CCCc2ccc(S(=O)(=O)Nc3ccc4nncn4c3)cc21 [CBK306435] | 36.2863
34 | O=C(c1ccccc1Nc1cccc(C(F)(F)F)c1)N1CCN(c2ccccn2)CC1 [CBK012634] | 66.4794
35 | O=C(O)CN(c1cccc([N+](=O)[O-])c1)S(=O)(=O)c1ccccc1 [CBK262684] | 102.108
36 | O=C1NC2(CCN(C(=O)C(F)(F)F)CC2)Oc2ccccc21 [CBK283906] | 93.8471
37 | Cc1cnc(C(=O)OCc2cc(=O)n3ccsc3n2)cn1 [CBK296978] | 111.089
38 | CCOC(=O)COc1ccc2c(=O)c(Oc3ccc([N+](=O)[O-])cc3)c(C)oc2c1C [CBK266092] | 95.4996
39 | CC(=O)N1CCC(O)(Cn2c(C3CC3)cc3cccnc32)CC1 [CBK283082] | 95.0223
40 | O=C(CCn1cnc2ccccc2c1=O)Nc1ccccc1C(F)(F)F [CBK270056] | 92.7512
41 | CCc1[nH]ncc1C(=O)N1CCN(c2nccc(OC)n2)CC1 [CBK304915] | 52.8551
42 | CCOC(=O)c1cnc2ccc(OC)cc2c1Nc1ccc(OC)cc1 [CBK095337] | 69.1584

Row | SMILES | % of control remaining
43 | Cc1nnc(SCC(=O)NCc2c(C)c(Cl)cc(C(C)C)c2O)s1 [CBK269662] | 106.134
44 | COc1cc2c(cc1C(C)c1ccc3c(c1)OCO3)OCO2 (stereo not drawn) [CBK200107] | 63.9998
45 | CC(=O)N1CCc2c([nH]c3cc(F)ccc23)C12CCN(CCC#N)CC2 [CBK039692] | 83.2505
46 | COC(=O)COc1nccnc1-c1ccc(C)c(C)c1 [CBK106871] | 74.0712
47 | CCOc1ccc(CNc2ccc(CNc3ncn[nH]3)cc2)cc1 [CBK267617] | 96.5683
48 | Cc1cc(=O)[nH]c(-n2nc(C)cc2NC(=O)c2ccccc2C)n1 [CBK287654] | 78.905
49 | CC12CN3CCN(CC(C3)C1(O)CN1CCOCC1)C2 (stereo not drawn) [CBK263033] | 92.0226
50 | C(=N\Nc1nc2ccccc2[nH]1)/c1cccs1 [CBK025417] | 33.2949
51 | CCCC(=O)Nc1ccc(OCc2cnccn2)c(C(C)=O)c1 [CBK304766] | 77.9136
52 | Cc1cc(-c2cnc(N)nc2)cc(C2CCCN(S(=O)(=O)c3ccc(F)c(C)c3)C2)n1 (stereo not drawn) [CBK285934] | 104.42
53 | O=C(NCc1cccnc1)N1CCCC(CO)C1 (stereo not drawn) [CBK156037] | 99.2058
54 | COc1ccc(CN(C)c2c(C)nc3c(OCC(=O)N4CCOCC4)cccn23)cc1 [CBK147469] | 102.715
55 | O=C(CCn1cnnn1)Nc1cc(C(F)(F)F)ccc1Cl [CBK270127] | 100.171
56 | NC(=O)CC[C@H](N)C(=O)N1CC[C@@H]2NC(=O)[C@H](Cc3ccccc3)NC(=O)C3(C/C=C/C[C@@H]2C1)CCOCC3 [CBK292199] | 116.53
57 | CN(CCCNC(=O)c1ncoc1-c1cccs1)c1ccccc1 [CBK282248] | 88.1666
58 | O=C(c1ccc(F)cc1)C1CCN(Cc2ccc(Cl)c(Cl)c2)CC1 [CBK149114] | 107.168
59 | COc1cc2c(cc1OC)C1c3ccccc3NC(c3ccc(F)cc3)N1CC2 (stereo not drawn) [CBK286191] | 95.9095
60 | Cc1c(OCc2cnn(-c3ccccc3)c2)ccc(-c2n[nH]c(C(F)(F)F)c2-c2ccccc2)c1O [CBK264962] | 47.3803
61 | Nc1nc(N)nc(CSc2ncc(-c3ccccc3)n2-c2ccccc2)n1 [CBK297103] | 116.224
62 | COc1ccc(C)cc1NC(=O)CCN1CCN(CCO)CC1 [CBK264199] | 100.737
63 | O=C(NCCCc1ccc(Cl)cc1)c1cc2c([nH]c1=O)CCC2 [CBK281560] | 107.947

Row | SMILES | % of control remaining
64 | COc1ccccc1Cc1cccc(C2CCN(C(=O)c3ccc(F)cc3)CC2)n1 [CBK286237] | 89.7873
65 | Cn1nc(C(=O)Nc2ccccc2Oc2ccc(F)cc2)ccc1=O [CBK281430] | 106.063
66 | COC(=O)c1c(C)n[nH]c1COc1ccccc1 [CBK057823] | 73.7398
67 | Cc1noc(C)c1C(=O)Nc1ccc(N2CCOCC2)c2nonc12 [CBK268125] | 63.8658
68 | Cc1ccccc1-c1cncc(C2CCN(C(=O)Cc3c[nH]c4ccccc34)CC2)n1 [CBK286148] | 123.705
69 | Cc1nc(CCNC(=O)N(Cc2cnn(C)c2)C2CC2)nc2c1CCC2 [CBK307650] | 58.7645
70 | Cc1cc(C)n2nc(CC(=O)NCCCn3cc(Cl)cn3)nc2n1 [CBK307276] | 60.4092
71 | CC1(CNC(=O)c2cc(-c3ccc(F)cc3)no2)COC1 [CBK281757] | 99.1592
72 | O=C(NCC1CCCO1)c1ccc2c(c1)C(=O)N(c1ccccc1-c1ccccc1)C2=O (stereo not drawn) [CBK262777] | 112.373
73 | COc1cc(S(=O)(=O)NCCc2ccccc2)c(OC)cc1C [CBK269868] | 91.1224
74 | Cc1cc(C)c(NC(=O)CSc2nnc(Cc3ccccc3)n2C)c(C)c1 [CBK265990] | 75.783
75 | CC(O)CNc1nccnc1-c1cccc(O)c1 (stereo not drawn) [CBK037055] | 118.2
76 | COc1ccc(-c2ccc(CCC(=O)O)n2-c2ccc(N(C)C)cc2)cc1 [CBK131895] | 87.9907
77 | COc1cc(/C=N/Nc2ccc(C(=O)O)cc2)cc(Br)c1O [CBK263318] | 73.9465
78 | O=C(CCn1cnnn1)N1C[C@H]2CC[C@@H]1CN(Cc1cccnc1)C2 [CBK307029] | 96.9096
79 | Cc1onc(-c2ccccc2)c1CNC(=O)c1cncnc1 [CBK144098] | 94.1844
80 | CCN1CCN(c2ccc(Nc3ccnc4cc5ccccc5cc34)cc2)CC1 [CBK261130] | 64.2337
81 | Cc1ccc(C2=CCN(CC(=O)Nc3nccs3)CC2)o1 [CBK283557] | 105.513
